# Some of the results follow.
# B1: chr10:93459826:93459827:-_ENSMUSG00000036099_ENSMUST00000119818|mus_mus|motif|central (ssRNA)
# RNA: GGGAGUUCUACAGUCCGACGAUCUCCCCACACCAGCCAGGAGGACACAAUCCAGCACGUGGGAAACAUGAUGAGCAAACGGAUGAAGGCAAACAGCAGCGAGACAUCCCAAGUGUUCGGGGUUGCCAGGGAGCAGAGCGUUGGCAACAGAGGAUUGAGCAUCA
# B2: 63631413_63632246_5513_CDS_ENSMUSG00000028364_ENSMUST00000107372|mouse|control|control (ssRNA)
# RNA: GGGAGUUCUACAGUCCGACGAUCCCAGGUAAGGAGGGCAGUUUCUGACUGAACCUCUGUAGCUGUAAAUUCUCUUGGGGAAUCGAGGUCUGUGGUAAACUUGGUGGCGAUGGUAGAGCUCUUCUGCUGUCCUUUCUCUGCAAACAACAGAGGAUUGAGCAUCA
# B3: 119461075_119461195_1244_3pUTR_ENSG00000119401_ENST00000373983|human|control|control (ssRNA)
# RNA: GGGAGUUCUACAGUCCGACGAUCUACCACGGUCAGCGACUAGUACUUCACCUUGACUGGUCACGUAGAGACUGACUGGAAGAUUGAACAUUCCUGGAGUGCUGCCUUUGGCCCCCAUCUUCUUGAGAAAGAGGCACUGCUGGACAACAGAGGAUUGAGCAUCA
# B4: 123611402_123617215_529_ncRNA_ENSMUSG00000025245_ENSMUST00000165754|mouse|control|control (ssRNA)
# RNA: GGGAGUUCUACAGUCCGACGAUCUGGGCCUUUAGCAAAUCCUGUUGGUUUUCUUGAUCGAGCUGUAAAUCUUGAAGUACUCUUUCCAAUUUUGACUUCUCAUCCAGAGCAUUUACAGCCUGUAUUUCAAUGGUCUUCAGCCUUCAACAGAGGAUUGAGCAUCA
# B5: chr5:146773406:146773407:-_ENSG00000113657_ENST00000343218|hu_hu|FALSE|FALSE (ssRNA)
# RNA: GGGAGUUCUACAGUCCGACGAUCGGCCUGUCUGAUUGCAUGCAUGUAAAUGGGGGGAGGGGAGUCAAACAAAUCAAGGCUAUGCAUAAACAGAAAACAAAGCAAUAUUCGUAAAGCUAGGCAAGCGAGCGUAACAUUGGAGAACAACAGAGGAUUGAGCAUCA
# B6: chr4:140265382:140265383:+_ENSG00000164134_ENST00000296543|hu_mus|FALSE|FALSE (ssRNA)
# RNA: GGGAGUUCUACAGUCCGACGAUCUUCUCUAUAAAGACCUGCUUCCCGAAGAACUUGAUUCUGAUAUAAGAGGAGUUCACUAUAUUCAUAAUCCACUUUAUCAGGAGAUGUCUGCUGUGUUUUCCUAAACUCUUCUAAAAUUUUCAACAGAGGAUUGAGCAUCA
# B7: 171526625_171526745_1071_3pUTR_ENSG00000117523_ENST00000495585|human|control|control (ssRNA)
# RNA: GGGAGUUCUACAGUCCGACGAUCAGGUUAUAGCUGCAGCUGAAGUAGAGGCUGGAACUGAAGCUGAGACUGAGGCUGAGGCUGAAACUGGAGCUAAGGGUGAGGCUGGAACUGGAGCUGAGGUUGAGGCCAGAACUGGAGCUACAACAGAGGAUUGAGCAUCA
# B8: 151550765_151552471_1592_3pUTR_ENSMUSG00000034021_ENSMUST00000016569|mouse|control|control (ssRNA)
# RNA: GGGAGUUCUACAGUCCGACGAUCCGUUCCGUCGUUUCCAAAUUGUGAGGGACCAUGUACUGAGCAAAGAUCCGCUCAACAAGUAGCCGGUCGUCGAUGCUGUUCUGAUAGUAUAUAUGCAGCAGCUUGUCCUUGACCCAGGAUCAACAGAGGAUUGAGCAUCA
# B9: chr22:19452774:19452775:-_ENSG00000070010_ENST00000399523|hu_hu|hu_hu_hu_mus_False|18_48 (ssRNA)
# RNA: GGGAGUUCUACAGUCCGACGAUCCUUCUCAUUGUAGUUGAUAGCAAUCACAUCUCCAGUCGUCAGACAGGCGAAGUUUCUCAAUGCGUUUUCUAAUACCGCUUUAGGGUUGGUAAUGUCCAGGAAGUCUGGGCUCUGAGGCUGCAACAGAGGAUUGAGCAUCA
# B10: chr5:124080617:124080618:-_ENSMUSG00000049550_ENSMUST00000063905|mus_mus|FALSE|FALSE (ssRNA)
# RNA: GGGAGUUCUACAGUCCGACGAUCCUCCAUCUCUUUAGCAUGAGCAGACCGCUCAGAGUCCUGUUUACUCUGUAAACUUUCUAUUUCGUGCUGGUAAUCUAGUCUCAGUCUCUCUAUCUGUGUCUUUAACUCAGCAAAUUCAGCCAACAGAGGAUUGAGCAUCA
# B11: chr1:66480114:66480115:+_ENSMUSG00000015222_ENSMUST00000024639|mus_hu|mus_mus_mus_hu_True|48_48 (ssRNA)
# RNA: GGGAGUUCUACAGUCCGACGAUCUGGCCUGUGGCGGAUGUUCUUCAGAGAGCCACAUUUGGAUGUCACAUGGCUUAGGUCUAUUUUCUUAGUAACAAUUUGUACCUGCCCCCCUUUAGGCUGGUAUUUGAUGUUGUCUGUUGACAACAGAGGAUUGAGCAUCA
# B12: 172138790_172141191_752_CDS_ENSMUSG00000026667_ENSMUST00000150821|mouse|control|control (ssRNA)
# RNA: GGGAGUUCUACAGUCCGACGAUCGAUAAGGUCUCUGAGGUGAUAGGCUGGAAUUGCGGCAUUCACCACUGCUUUACUGGCAAAUAUAUGAUCAAUAAUAGCAGAACUGUUUGCCUUCCAUUCCUGAGAUCUGACUGUAUGUUUCAACAGAGGAUUGAGCAUCA
# B13: chr4:99339852:99339853:+_ENSG00000138698_ENST00000453712|hu_mus|FALSE|FALSE (ssRNA)
# RNA: GGGAGUUCUACAGUCCGACGAUCGGCGUGCUGCACCGUCACGUUCCCGUCUUCUACGUGUCUGUCCAGCAAAUCCAUGAGUUUUUCUACAAUCCCAUUGUCUACCAUAUGAAUACAAUUUCCAUCGUUCCUGGCAAAAUUUGCCAACAGAGGAUUGAGCAUCA
# B14: chr5:71490152:71490153:+_ENSG00000131711_ENST00000296755|hu_mus|FALSE|FALSE (ssRNA)
# RNA: GGGAGUUCUACAGUCCGACGAUCUACGUUGAGAAACACAACCCCCAGGUCAGGGGAGAUGAGGUUUUUCAUCCAGUCACUGUUGCUGGUGGACCCCUGGGACCGCUCCUCUUCCAGCUCUGCAAUCUUGCGCUGCAGCAUGCUCAACAGAGGAUUGAGCAUCA
# B15: chr8:95500983:95500984:-_ENSG00000164944_ENST00000437199|hu_hu|hu_hu_hu_mus_True|38_108 (ssRNA)
# RNA: GGGAGUUCUACAGUCCGACGAUCAGAAGGAUUUUUACGAGUAAAGGACCGUACAUGACGGCCUCUACCACUGCCUCCACUAACAAACUUUCCUCUCUGAGCCUCCAUGCCGCUAUUUGUACUAGCCCAGGACGGUCCCAGGCCCAACAGAGGAUUGAGCAUCA
# B16: chr10:98281081:98281082:-_ENSG00000077147_ENST00000371142|hu_hu|FALSE|FALSE (ssRNA)
# RNA: GGGAGUUCUACAGUCCGACGAUCAAGAAAAAAGUACUCUGUAGUCGAUCUGUACAUCCAAAUGCAUUUGGGAAUCUACACCUACGUUACAUUAUUUAAUGUUAUAUACAUUUAUUACCCACCCCCCUUGUUUUUAAUAAUUUCCAACAGAGGAUUGAGCAUCA
# B17: chr2:5814250:5814251:-_ENSMUSG00000025816_ENSMUST00000102981|mus_hu|motif|central (ssRNA)
# RNA: GGGAGUUCUACAGUCCGACGAUCUUCCUUUCCGGUUUCUGAAUUUCUGGUAGAACUGCACAGAAUGGUUUGAUAACUUCGGAAAAUUUGAUGCCCAUGGCUGCUGCUGGGGAGGCCCAGGGGGAAACCGCGGCCUCGGCGCUGCAACAGAGGAUUGAGCAUCA
# B18: chr7:10978501:10978502:-_ENSG00000189043_ENST00000339600|hu_hu|FALSE|FALSE (ssRNA)
# RNA: GGGAGUUCUACAGUCCGACGAUCAUUGAACAAUGCCAGACGCAAGAGAUACAGUGUUGCUCCAGUAGCUCCAGUUCCAAUAAAUACAAAGAGGGGGAUCAAGCUCGGAUGCUUCUUGGCCUGACCGAUGAUCUGGCGGAGCAUCAACAGAGGAUUGAGCAUCA
# B19: chr1:52246310:52246311:-_ENSMUSG00000026103_ENSMUST00000114513|mus_hu|motif|central (ssRNA)
# RNA: GGGAGUUCUACAGUCCGACGAUCGCCCAUCUUAUCCAGAGGAGGAGACCAGCACAUCAUACCCAUAACAUUGGGGACAACGGAAAGAAUGCCCCCAGCAACUCCAGAUUUUGCAGGAAGACCAACAUGGAAAGCAAACUGCCCCAACAGAGGAUUGAGCAUCA
# B20: chr11:86887402:86887403:-_ENSMUSG00000061666_ENSMUST00000020804|mus_hu|FALSE|FALSE (ssRNA)
# RNA: GGGAGUUCUACAGUCCGACGAUCAGAGAUGUGUUUACUGAGGAAUCGCUGCUUCUUUCUCUGGUGCAGCAAGGUCGGGUAUUUAAGCAACAAGAAUGAGGUCACCAAGUAUCCUCCUAGCGUAGAGAGAAGGUAAAAAGCCGCCAACAGAGGAUUGAGCAUCA
# B21: 53988852_53988972_2293_3pUTR_ENSMUSG00000061603_ENSMUST00000095737|mouse|control|control (ssRNA)
# RNA: GGGAGUUCUACAGUCCGACGAUCUGUAGCAGAAUGGCUCUCAUUCUUCUCAGAGGAUGAAGGUCUCUCUGAUUUCUCAUCAGUGAACUUUUUCAUGCCGGAGAGGGGCAUACAUAAGUCCUCAUCAGAAAGAAUGUCACUCAGCAACAGAGGAUUGAGCAUCA
# B22: chr2:144966258:144966259:-_ENSG00000121964_ENST00000344850|hu_hu|FALSE|FALSE (ssRNA)
# RNA: GGGAGUUCUACAGUCCGACGAUCUGUCCGGGCUCUCCAAUGCCAUUUCUUUGCAGGAAGGGUAUAAACGACACAGUCUCCUAACUCUUCUUGAAGAAGAUCCACCAGCUGUUUAUGGGAGCCUCCAUAGAAUGCUUCAAUGAUCAACAGAGGAUUGAGCAUCA
# Target: T1, UNK ZnF1-3 (human, UniProt Q9C0B0 31-174)
# T1 sequence: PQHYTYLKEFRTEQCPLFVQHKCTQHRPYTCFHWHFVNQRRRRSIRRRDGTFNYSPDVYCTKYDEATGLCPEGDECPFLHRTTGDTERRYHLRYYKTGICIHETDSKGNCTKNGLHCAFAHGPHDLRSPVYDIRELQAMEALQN
# Assay: nsRBNS (natural sequence RNA bind-n-seq); RBNS binding buffer (assumed for nsRBNS): 25 mM Tris pH 7.5, 150 mM KCl, 3 mM MgCl2, 0.01% Triton X-100, 500 ug/ml BSA, 20 U/ml SUPERase-In, 4 C; UNK is unkempt and MSI1 is Musashi-1; names of the RNAs are library labels; protein concentration not given here; high values mean tight binding
row,Binder,binding signal [enrichment R]
1,B1,2.05
2,B2,0.781
3,B3,0.768
4,B4,0.435
5,B5,2.29
6,B6,1.5
7,B7,2.07
8,B8,0.852
9,B9,0.717
10,B10,0.821
11,B11,0.506
12,B12,0.552
13,B13,0.638
14,B14,0.926
15,B15,0.956
16,B16,1.97
17,B17,1.34
18,B18,1.85
19,B19,1.86
20,B20,0.911
21,B21,0.901
22,B22,0.786
